Experimental data reported in paper PMC12136788.
This is one part of the list.

T1: UNK ZnF1-3 (human, UniProt Q9C0B0 31-174)
T1 sequence: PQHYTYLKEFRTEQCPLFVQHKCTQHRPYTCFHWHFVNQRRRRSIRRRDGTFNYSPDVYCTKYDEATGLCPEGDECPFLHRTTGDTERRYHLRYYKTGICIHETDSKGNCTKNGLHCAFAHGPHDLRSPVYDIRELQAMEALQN

B1: 75419824_75419944_3436_3pUTR_ENSMUSG00000032186_ENSMUST00000064433|mouse|control|control (ssRNA)
RNA: GGGAGUUCUACAGUCCGACGAUCGAAAGAGUUAUUCAACCUCCAAAGGGAUUGUGACCCACAGGUUGAGAACCACUGACUUAGCGACAUAGAGAGAAGGGAAACAAGAAGGAUGCUUUGUCAUGAAAGGAGAGGAAAAGGAAGCAACAGAGGAUUGAGCAUCA
B2: chr4:138660994:138660995:-_ENSMUSG00000050608_ENSMUST00000143971|mus_hu|FALSE|FALSE (ssRNA)
RNA: GGGAGUUCUACAGUCCGACGAUCGAAAUCAUGCUGACAGUUGGAAUAAGCCAUUCCUAAUCCCAUGCCAGAACCGAAGGCUAAUGGCCACAUUCUUCUUUUAAAGAAGGUAAGUGAGAAAACAAUUCCUAAUCCAAAACCAGUCAACAGAGGAUUGAGCAUCA
B3: chr9:131455196:131455197:+_ENSG00000119335_ENST00000372688|hu_mus|FALSE|FALSE (ssRNA)
RNA: GGGAGUUCUACAGUCCGACGAUCAAAUUCUUUGGAGAGAACUUUAUUUUCAAAGUAAGGAUUUUCAUCAAAAUAAAAAUCUAUUCUGUAACCUGAUUUAAUGUCUUCAAAUUCUGUCACUUCAACUCUGGUCAAAUAAUGCAGCAACAGAGGAUUGAGCAUCA
B4: chr22:32879901:32879902:+_ENSG00000100225_ENST00000397426|hu_mus|hu_hu_hu_mus_False|18_48 (ssRNA)
RNA: GGGAGUUCUACAGUCCGACGAUCCUCUUCCAUACUCAUGGCAUCCUGAAUUGACUCAGCUUCAACAUUUUGACUAGGCCCUUCCAUACUGUCGUCAGUCCAGGCAUCAAAUGGGGUUGCCUGUCCUUGGGAUGAAUCAGUCCCCAACAGAGGAUUGAGCAUCA
B5: chr17:30807540:30807541:+_ENSG00000108671_ENST00000457654|hu_hu|FALSE|FALSE (ssRNA)
RNA: GGGAGUUCUACAGUCCGACGAUCGUUCUGAAUUGUUUCCAGAGCAGCUUCGUAAGUUUUAUCUACUGGGGGUUCAUCGAAAAUAAUCAGGACACCCUCCCCCUGGUCCAAAAUCCCAUGAAAUUUCUUGUCAAGAAUCAUCUGCAACAGAGGAUUGAGCAUCA
B6: 102154940_102155060_4973_CDS_ENSMUSG00000021182_ENSMUST00000068411|mouse|control|control (ssRNA)
RNA: GGGAGUUCUACAGUCCGACGAUCGGGUGGAGGGUACUCAUGGCGGCCGAGAAGACCACGUCCCGAGGUGUUGCCAUCCCGAGACAGCGUGGCAGGGUCCCUGCUGGGGAUCAGGUCUGCGCUGCUGAAGCUCUCACACCGGCUCAACAGAGGAUUGAGCAUCA
B7: chr5:146773406:146773407:-_ENSG00000113657_ENST00000343218|hu_hu|motif|central (ssRNA)
RNA: GGGAGUUCUACAGUCCGACGAUCGGCCUGUCUGAUUGCAUGCAUGUAAAUGGGGGGAGGGGAGUCAAACAAAUCAAGGCGGUGCAUAAACAGAAAACAAAGCAAUAUUCGUAAAGCUAGGCAAGCGAGCGUAACAUUGGAGAACAACAGAGGAUUGAGCAUCA
B8: chr4:144460044:144460045:+_ENSG00000153147_ENST00000283131|hu_mus|hu_hu_hu_mus_False|88_98 (ssRNA)
RNA: GGGAGUUCUACAGUCCGACGAUCACGGUCCAUAGCCUGAAGAUCUACUUGGGGAUUCCAAUCUGAGUCAUAUAAAAUGACUACAUCAGCAGUUGCAAGAUUGAUGCCCAGACCACCAGCACGUGUGCUUAGCAUAAAUACAAACAACAGAGGAUUGAGCAUCA
B9: chr7:141445308:141445309:+_ENSG00000106028_ENST00000265304|hu_hu|hu_hu_hu_mus_False|38_98 (ssRNA)
RNA: GGGAGUUCUACAGUCCGACGAUCUAUGAUUGUUGUUGCUUGUCGCCUCACAUUGUUUUUAUCCAUGUACUCGCCAUAGUCCACUUUCCCUUCCACAUAAAUUCGAGCCCCCUUUUUCACAUACUGAUAUGCCACAUCUCUGAGCAACAGAGGAUUGAGCAUCA
B10: chr14:53113150:53113151:-_ENSG00000197930_ENST00000395686|hu_hu|FALSE|FALSE (ssRNA)
RNA: GGGAGUUCUACAGUCCGACGAUCUCCCCACAGACGACAUUUAAAACAACCAACACAAUCCAUAAUUCUUGAAAUAUUUCUAAAAUGCAGUCGAAAGUCCUCCUUUAGUUUGUGUGCUUCUUUUUUAUCCCCAGCAAAAAAUGACAACAGAGGAUUGAGCAUCA
B11: chr5:128448638:128448639:+_ENSG00000066583_ENST00000173527|hu_mus|hu_hu_hu_mus_False|28_68 (ssRNA)
RNA: GGGAGUUCUACAGUCCGACGAUCGGCACUCGCCUUAAUUAGGUUCUGAAUUUCCUUGAACUUCGGGUGGUCCUUAUCAGCCACCAGCUGUAGGAGGACAGCCUCACUCGUGGUCACGAUGAUCCCAGUGCGGGCAAGACGCUCCAACAGAGGAUUGAGCAUCA
B12: 101157611_101163074_311_3pUTR_ENSMUSG00000035086_ENSMUST00000041403|mouse|control|control (ssRNA)
RNA: GGGAGUUCUACAGUCCGACGAUCGAGUUUCAAUAAAUGGCUCCUCUCCUGAGUUAGCCUCUUCCUCCUGGGUCUCUCCUGGUUUCGCCUGGGCUGUGGUAAGUAAUGGAGCUGUGAGUUCCUGGAUGGUGACCCGGUCCAGGACAACAGAGGAUUGAGCAUCA
B13: chr3:9412954:9412955:+_ENSG00000134077_ENST00000452837|hu_mus|hu_hu_hu_mus_False|18_68 (ssRNA)
RNA: GGGAGUUCUACAGUCCGACGAUCGGUUGAUAUCUCUUCUUUGAUGGCUGGAUUUUCAUAAUAGUCCAAGAUAUGAGAAUCUGAAGUGCUGCUGGCAUGCUUUUUCUUACCAUCUUUCUGAUCGAUUUUGUCUCCUUGUCCACACAACAGAGGAUUGAGCAUCA
B14: chr7:140404665:140404666:+_ENSG00000090266_ENST00000247866|hu_hu|hu_hu_hu_mus_False|1_98 (ssRNA)
RNA: GGGAGUUCUACAGUCCGACGAUCUGCUCCUACUCGUAGGCUGAGUCUACAGUGUCAGUCCUCGUCAUCAGGAGGGAUUCCCAGUUCUUCAUCUGUCCACUGUGAAGGAUCUGGAUAUGAAAAGUGACCCAGCACAGCUUCUGACAACAGAGGAUUGAGCAUCA
B15: chr17:57761033:57761034:+_ENSG00000141367_ENST00000269122|hu_hu|motif|central (ssRNA)
RNA: GGGAGUUCUACAGUCCGACGAUCAUCCAACCGUGGAGACAGCACCAUCAGCAAAUCAUUUAACAACAGAGGCUUGAAUUCGGAGUAGAACUGUAUUGCUCUGUAGUAUAGUUCCACAUUGGCAACCUUGGUAAUGAUAUCUUUCAACAGAGGAUUGAGCAUCA
B16: chr6:99849430:99849431:-_ENSG00000132424_ENST00000438806|hu_mus|motif|central (ssRNA)
RNA: GGGAGUUCUACAGUCCGACGAUCUCUUUUCUUGUCAUUGACCGCAUCACGGUCGGCUUCACUUGCUUCUAGAAGUGAUAAACGGUUUUGCUCUCUGUGAAUAAAUUCAUUCAUCUCUUUUGUAACCCUUUCUGUUUGCUGCUUCAACAGAGGAUUGAGCAUCA
B17: 99061608_99061728_1756_CDS_ENSG00000152767_ENST00000319562|human|control|control (ssRNA)
RNA: GGGAGUUCUACAGUCCGACGAUCCAGCAGCGGGCUGAUCAAGGGAGAGGCCUGCUUGGUGUCGGGGCUCAGGUUGGGAGACAAGGUCACGUUGGCAGGGGCCACUCCCCCCUGCGAGUUCACAGACAGCUCGGAAAGGUGAGGCAACAGAGGAUUGAGCAUCA
B18: 42058404_42058524_8184_CDS_ENSG00000174197_ENST00000570161|human|control|control (ssRNA)
RNA: GGGAGUUCUACAGUCCGACGAUCAGAAAUCUUUUUAGGUAAGAACUCUUGUGCUUUCUGCAUAUUGGAAACGUCAACUAUUUGUGGAUAACCAGAAUCUUUGUUUGCCAGAAAAACCUGCGUUGGACCCAACGUCACUCUGCCCAACAGAGGAUUGAGCAUCA
B19: chr2:48782664:48782665:-_ENSMUSG00000026761_ENSMUST00000141441|mus_mus|motif|central (ssRNA)
RNA: GGGAGUUCUACAGUCCGACGAUCUCACUCUCUUUUCUAAGAGUUCCAAAAUAUCCAAUCUACAUGUAAGUCCAAUAACUGCGGCUGGUGUCUGUGCAGAUUGAGAAAUGUCAAAAAGAUUAUAAAGGAGUGUUUGAUUUUUCUCAACAGAGGAUUGAGCAUCA
B20: chr5:135101456:135101457:-_ENSMUSG00000040731_ENSMUST00000036125|mus_hu|motif|central (ssRNA)
RNA: GGGAGUUCUACAGUCCGACGAUCGCCCAACAGUGCACCAUCGUAUGUCAAGGCUUCCUUAAGGGAAUCCACUUCAUCGAAUUCGGCAUAGCAGAAUCCUUUAAAUUUAUCUGUGUCUUUGUCUCUGACUAGCCGUACACUCCUCAACAGAGGAUUGAGCAUCA
B21: chr1:35656411:35656412:-_ENSG00000116560_ENST00000357214|hu_mus|FALSE|FALSE (ssRNA)
RNA: GGGAGUUCUACAGUCCGACGAUCUGGCUUGGAAGCAAACUCAACAAUGCCUUUCCCUGUAGAUCUUCCGCGAUCAUCCACAAUUACAACAGCCCUUUCAAUAGGACCAAACUGGCUAAAGGCCUCUUCCAAAAGUUCGUUGGACAACAGAGGAUUGAGCAUCA
B22: chr17:24706804:24706805:+_ENSMUSG00000032855_ENSMUST00000035565|mus_mus|motif|central (ssRNA)
RNA: GGGAGUUCUACAGUCCGACGAUCGCAAUCUUGCUUGAGAAAAUCCACCUCAGGAGGGCAGGCAUCCUCGAAGGGAGCACGGAUAUUGCCCCCAAACCACUGAGCUGUGGCAGUGGCAUUAGCACCAGAAUCUACCUGAAGCACCAACAGAGGAUUGAGCAUCA

Target: T1, UNK ZnF1-3
Assay: nsRBNS (natural sequence RNA bind-n-seq); RBNS binding buffer (assumed for nsRBNS): 25 mM Tris pH 7.5, 150 mM KCl, 3 mM MgCl2, 0.01% Triton X-100, 500 ug/ml BSA, 20 U/ml SUPERase-In, 4 C; UNK is unkempt and MSI1 is Musashi-1; names of the RNAs are library labels; protein concentration not given here; high values mean tight binding

Row | Binder | binding signal [enrichment R]
1 | B1 | 2.26
2 | B2 | 1.09
3 | B3 | 0.623
4 | B4 | 0.925
5 | B5 | 0.934
6 | B6 | 0.771
7 | B7 | 1.97
8 | B8 | 1.28
9 | B9 | 0.614
10 | B10 | 1.91
11 | B11 | 0.736
12 | B12 | 0.637
13 | B13 | 0.506
14 | B14 | 0.847
15 | B15 | 2.04
16 | B16 | 0.381
17 | B17 | 1.2
18 | B18 | 0.865
19 | B19 | 1.18
20 | B20 | 1.1
21 | B21 | 1.07
22 | B22 | 1.29
